# From the supplement of paper PMC6746778
# This is one part of the list. Repeats are few or missing, and single values can be far off.
# Assays:
# Assay in all cases: proliferation Z-score within cell line (SRB, relative to all inhibitors screened on that line); triple-negative breast cancer lines and a kinase inhibitor library; SRB is the sulforhodamine B protein stain; higher = less growth inhibition (more resistant)
# Conditions in all cases: concentration: 1 µM; 4 days
# Bt20 = tested on: Bt20
# Bt549 = tested on: Bt549
# HCC1143 = tested on: HCC1143
# HCC1806 = tested on: HCC1806
# HCC1937 = tested on: HCC1937
# HCC38 = tested on: HCC38
# HCC70 = tested on: HCC70
# Hs578T = tested on: Hs578T
# MDA-MB-231 = tested on: MDA-MB-231
# MDA-MB-435s = tested on: MDA-MB-435s
# MDA-MB-436 = tested on: MDA-MB-436
# MDA-MB-453 = tested on: MDA-MB-453
# MDA-MB-468 = tested on: MDA-MB-468
# SKBR7 = tested on: SKBR7
# SUM1315MO2 = tested on: SUM1315MO2
# SUM149PT = tested on: SUM149PT
# SUM159PT = tested on: SUM159PT
# SUM185PE = tested on: SUM185PE
# SUM229PE = tested on: SUM229PE
# SUM52PE = tested on: SUM52PE
# 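Further: Single-dose primary screen of a 378-member kinase inhibitor library in 96-well plates, with growth read as absorbance of protein-bound SRB dye after TCA fixation.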
smiles,measurement,setting,value
CC(C)(C)c1cc(C=C(C#N)C#N)cc(Br)c1O,proliferation Z-score within cell line,Bt20,-0.107
same,proliferation Z-score within cell line,Bt549,0.249
same,proliferation Z-score within cell line,HCC1143,0.345
same,proliferation Z-score within cell line,HCC1806,0.336
same,proliferation Z-score within cell line,HCC1937,0.445
same,proliferation Z-score within cell line,HCC38,0.226
same,proliferation Z-score within cell line,HCC70,0.278
same,proliferation Z-score within cell line,Hs578T,0.319
same,proliferation Z-score within cell line,MDA-MB-231,0.62
same,proliferation Z-score within cell line,MDA-MB-435s,0.469
same,proliferation Z-score within cell line,MDA-MB-436,0.128
same,proliferation Z-score within cell line,MDA-MB-453,0.45
same,proliferation Z-score within cell line,MDA-MB-468,0.395
same,proliferation Z-score within cell line,SKBR7,-0.385
same,proliferation Z-score within cell line,SUM1315MO2,0.21
same,proliferation Z-score within cell line,SUM149PT,-0.163
same,proliferation Z-score within cell line,SUM159PT,0.205
same,proliferation Z-score within cell line,SUM185PE,-0.258
same,proliferation Z-score within cell line,SUM229PE,-0.252
same,proliferation Z-score within cell line,SUM52PE,0.00372
CC(C)(C)c1cc(C=C(C#N)C#N)cc(C(C)(C)C)c1O [Tyrphostin 9],proliferation Z-score within cell line,Bt20,-0.916
same,proliferation Z-score within cell line,Bt549,0.512
same,proliferation Z-score within cell line,HCC1143,0.536
same,proliferation Z-score within cell line,HCC1806,0.606
same,proliferation Z-score within cell line,HCC1937,0.486
same,proliferation Z-score within cell line,HCC38,0.371
same,proliferation Z-score within cell line,HCC70,0.544
same,proliferation Z-score within cell line,Hs578T,0.484
same,proliferation Z-score within cell line,MDA-MB-231,0.218
same,proliferation Z-score within cell line,MDA-MB-435s,0.0883
same,proliferation Z-score within cell line,MDA-MB-436,0.378
same,proliferation Z-score within cell line,MDA-MB-453,0.698
same,proliferation Z-score within cell line,MDA-MB-468,-0.411
same,proliferation Z-score within cell line,SKBR7,0.471
same,proliferation Z-score within cell line,SUM1315MO2,-0.293
same,proliferation Z-score within cell line,SUM149PT,0.316
same,proliferation Z-score within cell line,SUM159PT,0.386
same,proliferation Z-score within cell line,SUM185PE,-0.0125
same,proliferation Z-score within cell line,SUM229PE,0.856
same,proliferation Z-score within cell line,SUM52PE,-0.171
Cc1ccccc1-n1c(Cn2ncc3c(N)ncnc32)nc2cccc(C)c2c1=O,proliferation Z-score within cell line,Bt20,0.456
same,proliferation Z-score within cell line,Bt549,0.592
same,proliferation Z-score within cell line,HCC1143,-0.00162
same,proliferation Z-score within cell line,HCC1806,0.58
same,proliferation Z-score within cell line,HCC1937,0.223
same,proliferation Z-score within cell line,HCC38,0.519
same,proliferation Z-score within cell line,HCC70,-1.85
same,proliferation Z-score within cell line,Hs578T,0.457
same,proliferation Z-score within cell line,MDA-MB-231,0.899
same,proliferation Z-score within cell line,MDA-MB-435s,0.804
same,proliferation Z-score within cell line,MDA-MB-436,-0.839
same,proliferation Z-score within cell line,MDA-MB-453,0.721
same,proliferation Z-score within cell line,MDA-MB-468,0.887
same,proliferation Z-score within cell line,SKBR7,0.692
same,proliferation Z-score within cell line,SUM1315MO2,0.842
same,proliferation Z-score within cell line,SUM149PT,0.738
same,proliferation Z-score within cell line,SUM159PT,-0.813
same,proliferation Z-score within cell line,SUM185PE,0.799
same,proliferation Z-score within cell line,SUM229PE,0.639
same,proliferation Z-score within cell line,SUM52PE,0.848
O=c1[nH]c2ccc(Cl)cc2c(N[C@@H]2CN3CCC2CC3)c1-c1nc2ccccc2[nH]1,proliferation Z-score within cell line,Bt20,-0.856
same,proliferation Z-score within cell line,Bt549,-0.92
same,proliferation Z-score within cell line,HCC1143,-1.36
same,proliferation Z-score within cell line,HCC1806,-1.75
same,proliferation Z-score within cell line,HCC1937,-1.65
same,proliferation Z-score within cell line,HCC38,-1.64
same,proliferation Z-score within cell line,HCC70,-1.07
same,proliferation Z-score within cell line,Hs578T,-1.05
same,proliferation Z-score within cell line,MDA-MB-231,-1.16
same,proliferation Z-score within cell line,MDA-MB-435s,-1.4
same,proliferation Z-score within cell line,MDA-MB-436,-1.19
same,proliferation Z-score within cell line,MDA-MB-453,-0.261
same,proliferation Z-score within cell line,MDA-MB-468,-1.08
same,proliferation Z-score within cell line,SKBR7,-0.394
same,proliferation Z-score within cell line,SUM1315MO2,-1.17
same,proliferation Z-score within cell line,SUM149PT,-1.21
same,proliferation Z-score within cell line,SUM159PT,-2.05
same,proliferation Z-score within cell line,SUM185PE,-0.0613
same,proliferation Z-score within cell line,SUM229PE,-1.63
same,proliferation Z-score within cell line,SUM52PE,-0.695
Cn1cc(C2=C(c3cn(C4CCN(Cc5ccccn5)CC4)c4ccccc34)C(=O)NC2=O)c2ccccc21,proliferation Z-score within cell line,Bt20,-0.181
same,proliferation Z-score within cell line,Bt549,0.511
same,proliferation Z-score within cell line,HCC1143,-1.61
same,proliferation Z-score within cell line,HCC1806,-0.427
same,proliferation Z-score within cell line,HCC1937,-0.224
same,proliferation Z-score within cell line,HCC38,-0.23
same,proliferation Z-score within cell line,HCC70,-0.653
same,proliferation Z-score within cell line,Hs578T,0.537
same,proliferation Z-score within cell line,MDA-MB-231,0.964
same,proliferation Z-score within cell line,MDA-MB-435s,0.575
same,proliferation Z-score within cell line,MDA-MB-436,-0.937
same,proliferation Z-score within cell line,MDA-MB-453,0.435
same,proliferation Z-score within cell line,MDA-MB-468,0.888
same,proliferation Z-score within cell line,SKBR7,0.533
same,proliferation Z-score within cell line,SUM1315MO2,0.485
same,proliferation Z-score within cell line,SUM149PT,0.223
same,proliferation Z-score within cell line,SUM159PT,-0.156
same,proliferation Z-score within cell line,SUM185PE,0.397
same,proliferation Z-score within cell line,SUM229PE,0.0644
same,proliferation Z-score within cell line,SUM52PE,0.499
COc1ccc(N(C(=O)Oc2c(C)cccc2C)c2ccnc(Nc3ccc(N4CCN(C)CC4)cc3)n2)c(OC)c1,proliferation Z-score within cell line,Bt20,0.462
same,proliferation Z-score within cell line,Bt549,0.561
same,proliferation Z-score within cell line,HCC1143,0.547
same,proliferation Z-score within cell line,HCC1806,0.934
same,proliferation Z-score within cell line,HCC1937,0.466
same,proliferation Z-score within cell line,HCC38,0.545
same,proliferation Z-score within cell line,HCC70,0.522
same,proliferation Z-score within cell line,Hs578T,0.477
same,proliferation Z-score within cell line,MDA-MB-231,0.432
same,proliferation Z-score within cell line,MDA-MB-435s,0.795
same,proliferation Z-score within cell line,MDA-MB-436,0.905
same,proliferation Z-score within cell line,MDA-MB-453,0.611
same,proliferation Z-score within cell line,MDA-MB-468,0.615
same,proliferation Z-score within cell line,SKBR7,1.01
same,proliferation Z-score within cell line,SUM1315MO2,-0.568
same,proliferation Z-score within cell line,SUM149PT,0.663
same,proliferation Z-score within cell line,SUM159PT,0.525
same,proliferation Z-score within cell line,SUM185PE,0.482
same,proliferation Z-score within cell line,SUM229PE,0.00309
same,proliferation Z-score within cell line,SUM52PE,-0.313
CCN1CCN(C(=O)Cc2ccc(Nc3ncc(F)c(Nc4ccc(C(=O)Nc5ccccc5Cl)cc4)n3)cc2)CC1 [Aurora A Inhibitor I],proliferation Z-score within cell line,Bt20,-0.747
same,proliferation Z-score within cell line,Bt549,-0.473
same,proliferation Z-score within cell line,HCC1143,-0.987
same,proliferation Z-score within cell line,HCC1806,-0.69
same,proliferation Z-score within cell line,HCC1937,-1.78
same,proliferation Z-score within cell line,HCC38,-0.277
same,proliferation Z-score within cell line,HCC70,-1.91
same,proliferation Z-score within cell line,Hs578T,-0.0166
same,proliferation Z-score within cell line,MDA-MB-231,0.0623
same,proliferation Z-score within cell line,MDA-MB-435s,-0.413
same,proliferation Z-score within cell line,MDA-MB-436,-1.89
same,proliferation Z-score within cell line,MDA-MB-453,-1.38
same,proliferation Z-score within cell line,MDA-MB-468,-1.28
same,proliferation Z-score within cell line,SKBR7,-0.853
same,proliferation Z-score within cell line,SUM1315MO2,-1.02
same,proliferation Z-score within cell line,SUM149PT,-0.169
same,proliferation Z-score within cell line,SUM159PT,-1.33
same,proliferation Z-score within cell line,SUM185PE,-0.233
same,proliferation Z-score within cell line,SUM229PE,-0.545
same,proliferation Z-score within cell line,SUM52PE,-0.899
COC[C@H]1OC(=O)c2coc3c2[C@@]1(C)C1=C(C3=O)[C@@H]2CCC(=O)[C@@]2(C)C[C@H]1OC(C)=O [Wortmannin],proliferation Z-score within cell line,Bt20,0.694
same,proliferation Z-score within cell line,Bt549,0.866
same,proliferation Z-score within cell line,HCC1143,0.561
same,proliferation Z-score within cell line,HCC1806,0.281
same,proliferation Z-score within cell line,HCC1937,0.303
same,proliferation Z-score within cell line,HCC38,0.724
same,proliferation Z-score within cell line,HCC70,0.709
same,proliferation Z-score within cell line,Hs578T,0.521
same,proliferation Z-score within cell line,MDA-MB-231,0.916
same,proliferation Z-score within cell line,MDA-MB-435s,1.08
same,proliferation Z-score within cell line,MDA-MB-436,0.738
same,proliferation Z-score within cell line,MDA-MB-453,0.732
same,proliferation Z-score within cell line,MDA-MB-468,1.05
same,proliferation Z-score within cell line,SKBR7,1.16
same,proliferation Z-score within cell line,SUM1315MO2,0.806
same,proliferation Z-score within cell line,SUM149PT,0.955
same,proliferation Z-score within cell line,SUM159PT,0.743
same,proliferation Z-score within cell line,SUM185PE,0.71
same,proliferation Z-score within cell line,SUM229PE,0.573
same,proliferation Z-score within cell line,SUM52PE,0.826
